Results taken from PubChem BioAssay AID504339 (National Center for Advancing Translational Sciences (NCATS), 2011).
The campaign covered roughly 390,000 compounds. About 17,000 (4.4%) were called active. The inconclusive results got no clear call from the source; some entries with a clear call stand among them for comparison. Calls follow the shape of the dose curve; as a rule, active = well fitted inhibition curve with a large enough effect; inconclusive = small, poorly fitted or top-dose-only effect; inactive = no such curve, though single readings can be large or run the other way. Potencies beside an inconclusive call are fits to weak or partial responses and may not hold up.
% is scaled to controls: 0 for no effect and ±100 for the full control effect; potency is read from the fitted curve at half-maximal effect; tags tell the direction and shape of the fitted curve.
Also: nearly all actives have a fitted effect of over 50% in size.

The compounds below were run against Lysine-specific demethylase 4A (Homo sapiens) (UniProt O75164) (assay: qHTS Assay for Inhibitors of JMJD2A-Tudor Domain). Conditions: AlphaScreen JMJD2A-Tudor / H3K4me3 peptide binding; activity change, negative = inhibition: at 114 µM (top of the series).
Chain of UniProt O75164 (O75164 whole entry, looked up, the tested form may be a part): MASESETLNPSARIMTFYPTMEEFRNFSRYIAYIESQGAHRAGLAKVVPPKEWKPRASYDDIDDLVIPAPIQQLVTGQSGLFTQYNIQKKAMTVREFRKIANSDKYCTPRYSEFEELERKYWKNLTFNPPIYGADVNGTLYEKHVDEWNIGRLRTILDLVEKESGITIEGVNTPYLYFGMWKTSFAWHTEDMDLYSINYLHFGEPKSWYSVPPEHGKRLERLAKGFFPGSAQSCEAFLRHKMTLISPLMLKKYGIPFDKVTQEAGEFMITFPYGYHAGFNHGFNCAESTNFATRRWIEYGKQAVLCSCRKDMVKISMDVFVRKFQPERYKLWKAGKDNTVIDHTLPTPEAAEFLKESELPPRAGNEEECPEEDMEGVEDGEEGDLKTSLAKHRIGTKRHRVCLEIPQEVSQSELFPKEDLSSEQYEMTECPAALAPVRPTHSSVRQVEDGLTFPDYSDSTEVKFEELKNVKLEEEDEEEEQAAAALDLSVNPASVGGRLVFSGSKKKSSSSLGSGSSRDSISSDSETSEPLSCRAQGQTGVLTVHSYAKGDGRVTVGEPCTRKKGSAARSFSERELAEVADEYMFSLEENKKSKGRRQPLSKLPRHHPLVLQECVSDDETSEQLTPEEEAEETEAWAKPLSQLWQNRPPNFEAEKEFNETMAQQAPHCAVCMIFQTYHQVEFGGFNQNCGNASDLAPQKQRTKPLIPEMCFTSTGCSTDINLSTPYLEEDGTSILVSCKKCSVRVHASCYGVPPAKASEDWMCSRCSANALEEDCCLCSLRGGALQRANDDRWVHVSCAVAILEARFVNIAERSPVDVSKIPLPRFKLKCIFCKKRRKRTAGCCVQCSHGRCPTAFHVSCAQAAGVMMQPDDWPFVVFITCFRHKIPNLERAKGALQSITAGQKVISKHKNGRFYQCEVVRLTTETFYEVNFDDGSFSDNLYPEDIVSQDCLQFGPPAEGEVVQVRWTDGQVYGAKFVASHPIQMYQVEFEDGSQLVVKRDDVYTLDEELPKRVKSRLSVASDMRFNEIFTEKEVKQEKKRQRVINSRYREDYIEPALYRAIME
With COc1ccccc1N1CCN(C(=O)Cn2c(=O)n3nc(-c4cccc(C)c4)nc3c3ccccc32)CC1 the Potency was “inactive”. In the case of Cc1ccc(Nc2sc(C(=O)c3ccccc3)c(N)c2S(=O)(=O)c2ccccc2)c(C)c1, the Potency is reported as “inactive”. CC1CC2(CC(C)(C(=O)CSc3n[nH]c(-c4ccccc4Cl)n3)OC2=O)C(=O)O1 (stereo not given) was tested, and the Potency was inconclusive: 39.8 µM [inhibitor, single point]. For COc1cc(/C=N/NC(=O)c2ccc(-n3cccc3)cc2)ccc1O, the Potency was inconclusive: 50.1 µM [inhibitor, partial curve]. In the case of CC1CC(C)(C)NC(=S)N1CCC(=O)Nc1ccc2c(c1)OCCO2 (stereo not given), the Potency is reported as inconclusive: 35.5 µM [inhibitor, partial curve]. CCn1cc([N+](=O)[O-])c(C(=O)N2N=C(c3ccc4ccccc4c3)CC2c2cc(Br)ccc2O)n1 (stereo not given) was tested, and the Potency was inconclusive: 39.8 µM [inhibitor, partial curve]. For Cc1nnc(SCC(=O)Nc2cccc(C(F)(F)F)c2)n1Cc1ccco1, the Potency was inconclusive: 89.1 µM [inhibitor, single point]. CCC(C)NCCOc1cc(C)cc(C)c1C (stereo not given) was tested, and the activity change, negative = inhibition was inconclusive: -100% [inhibitor]. For Cc1ccc(Cn2cccc(NS(C)(=O)=O)c2=O)cc1, the Potency was inconclusive: 20 µM [inhibitor, partial curve]. In the case of O=C(COc1ccc(F)cc1)NC1CC(=O)N(c2ccc3c(c2)OCCO3)C1 (stereo not given), the Potency is reported as “inactive”. In the case of CC1CCC(N2CCN(C(=O)c3ccccc3F)CC2)CC1 (stereo not given), the Potency is reported as active: 28.2 µM. In the case of Cc1nc2ccc([N+](=O)[O-])cc2c(=O)n1Cc1cccc(F)c1, the Potency is reported as inconclusive: 14.1 µM [inhibitor, full curve, poor fit]. With Cc1ccc(-c2csc(N(CCCN(C)C)C(=O)c3ccco3)n2)cc1 the Potency was inconclusive: 44.7 µM [inhibitor, partial curve]. CN(C(=O)C1CCC(=O)N(CCCN2CCCC2=O)C1)C(C1CC1)C1CC1 (stereo not given) was tested, and the Potency was “inactive”. For Cc1c(C)n(-c2ccc(Cl)cc2)c2ncnc(N)c12, the Potency was inconclusive: 50.1 µM [inhibitor, partial curve]. With COc1ccc(S(=O)(=O)N2CCCC(C(=O)NCCC(C)C)C2)cc1 (stereo not given) the Potency was inconclusive: 56.2 µM [inhibitor, partial curve]. In the case of CCOCN(C(=O)Cn1c(CC(C)C)nc2ccccc21)c1c(C)cccc1CC, the Potency is reported as “inactive”. With CC(C)c1ccc(NC(=O)C(NS(=O)(=O)c2ccc3c(c2)CCC(=O)N3)c2ccccc2)cc1 (stereo not given) the Potency was “inactive”. In the case of Cn1ccnc1SCC(=O)Nc1ccc(Oc2ccccc2)cc1, the Potency is reported as inconclusive: 79.4 µM [inhibitor, partial curve]. O=[N+]([O-])c1ccc2c(c1)C(=NO)c1cc(F)ccc1-2 was tested, and the Potency was inconclusive: 39.8 µM [inhibitor, partial curve]. For CC(Sc1nnc(NCc2ccccc2)s1)C(=O)Nc1ccc2c(c1)C(=O)c1ccccc1C2=O (stereo not given), the Potency was inconclusive: 44.7 µM [inhibitor, partial curve]. With COc1ccc(/C=C/C(=O)OCC(=O)NC2CCCC(C)C2C)cc1 (stereo not given) the Potency was “inactive”. In the case of CC(=O)N1CCC(C(=O)Nc2cc(C)cc(C)c2)CC1, the Potency is reported as inconclusive: 89.1 µM [inhibitor, single point]. O=C(COc1ccc([N+](=O)[O-])cc1)N1CCN(c2nnc(-c3ccccc3)c3ccccc23)CC1 was tested, and the Potency was inconclusive: 56.2 µM [inhibitor, partial curve]. COc1cc(NC(=O)CCc2c(C)nc3c4c(C)cc(C)nc4nn3c2C)cc(OC)c1 was tested, and the Potency was inconclusive: 79.4 µM [inhibitor, partial curve]. In the case of Cc1ccc(NC(=S)N(CCN(C)C)C(C)c2cccnc2)cc1 (stereo not given), the Potency is reported as “inactive”. In the case of O=[N+]([O-])c1cc(-c2cnc3ccccc3n2)ccc1Oc1ccc(Cl)cc1, the Potency is reported as “inactive”. With NC(=S)N=Nc1c(O)[nH]c2ccc(F)cc12 the Potency was inconclusive: 35.5 µM [inhibitor, single point]. C=CCn1c(SCC(=O)c2ccc(O)c(O)c2)nnc1-c1ccc(OC)cc1 was tested, and the Potency was inconclusive: 39.8 µM [inhibitor, partial curve]. COc1ccc(NC(=S)N/N=C/c2cccn2Cc2ccc(F)cc2Cl)cc1 was tested, and the Potency was active: 28.2 µM. For CCOC(=O)c1cc(-c2ccc(OC)cc2)n(CCC(=O)Nc2ccc(OC)cc2OC)c1C, the Potency was inconclusive: 25.1 µM [inhibitor, full curve]. For Fc1ccc(-c2cc(C(F)(F)F)n3ncnc3n2)cc1, the Potency was inconclusive: 79.4 µM [inhibitor, single point]. With CCS(=O)(=O)n1nc(C(=O)N2CCOCC2)nc1N the Potency was active: 89.1 µM. COc1ccc(N=Cc2cc(Cl)ccc2O)cc1Cl was tested, and the Potency was “inactive”. For O=C(Nc1ccnn1C1CCN(Cc2ccccc2OC(F)F)CC1)c1cccnc1, the Potency was “inactive”. With CN(C)CCNc1ncnc2c1sc1nc(-c3ccccc3)c3c(c12)CCCC3 the Potency was inconclusive: 44.7 µM [inhibitor, partial curve]. In the case of CC12CCC(C(=NO)C1=NO)C2(C)C (stereo not given), the Potency is reported as inconclusive: 39.8 µM [inhibitor, single point]. CC(C)c1ccc(NC(=S)NCCc2c[nH]c3ccccc23)cc1 was tested, and the Potency was inconclusive: 44.7 µM [inhibitor, partial curve]. For CCCCC(=O)Nc1cc(-c2nc3cccnc3s2)ccc1C, the Potency was inconclusive: 44.7 µM [inhibitor, full curve, poor fit]. In the case of COC(=O)COc1ccc2c(c1)O/C(=C\c1ccco1)C2=O, the Potency is reported as inconclusive: 35.5 µM [inhibitor, full curve, poor fit]. In the case of CCOc1ccccc1N1CCN(C/C=C/c2ccc(N(C)C)cc2)CC1, the Potency is reported as active: 5.62 µM. COc1cccc2cc(C(=O)C3=C(O)C(=O)N(Cc4ccco4)C3c3cccnc3)oc12 (stereo not given) was tested, and the Potency was active: 79.4 µM. For O=S(=O)(c1ccccc1)c1ccc(NCc2ccco2)cc1, the Potency was inconclusive: 56.2 µM [inhibitor, partial curve]. For COc1cc(C(=O)OCc2cc(=O)oc3c(C)c(C)ccc23)ccc1OC(F)F, the Potency was inconclusive: 25.1 µM [inhibitor, single point]. In the case of O=C(NC1CCN(Cc2ccccc2)CC1)C1CCN(c2nnc(-n3cccc3)s2)CC1, the Potency is reported as inconclusive: 56.2 µM [inhibitor, partial curve].
